Assay results from PubChem BioAssay AID485344 (National Center for Advancing Translational Sciences (NCATS), 2010).
Among all 340,000 compounds or so, about 6,900 (2%) were called active. No stated cut-off is given here; in the data, active means inhibition above about 30%; inactive means below that, where a call was filed. The list shows a part of the results, in another mix than the full data. Where no call is shown, the source filed none.
Further: 0% is about no effect.

These compounds were tested against D(2) dopamine receptor (Homo sapiens) (UniProt P14416) (assay: HTS Assay for Allosteric Antagonists of the Human D2 Dopamine Receptor: Primary Screen for Antagonists). Details: HEK293 TREx D2 cells, calcium flux, dopamine EC80; at 10 µM; stronger effect = higher value.
UniProt P14416, sequence (P14416 whole entry, looked up): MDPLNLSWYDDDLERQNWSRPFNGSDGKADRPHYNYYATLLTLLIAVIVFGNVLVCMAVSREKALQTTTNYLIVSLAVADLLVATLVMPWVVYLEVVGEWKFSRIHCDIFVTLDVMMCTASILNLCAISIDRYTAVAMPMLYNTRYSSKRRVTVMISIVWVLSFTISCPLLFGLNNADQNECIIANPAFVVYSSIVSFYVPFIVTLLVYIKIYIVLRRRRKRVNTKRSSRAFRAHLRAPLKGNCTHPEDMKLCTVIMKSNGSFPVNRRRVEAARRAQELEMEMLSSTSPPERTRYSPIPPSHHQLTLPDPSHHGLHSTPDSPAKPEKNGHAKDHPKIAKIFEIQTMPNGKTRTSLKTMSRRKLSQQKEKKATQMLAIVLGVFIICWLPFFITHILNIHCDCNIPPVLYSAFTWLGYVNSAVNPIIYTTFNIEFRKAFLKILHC
Outline: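 Tetracycline-induced HEK293 TREx cells expressing D2 receptor forced-coupled to calcium signalling, loaded with no-wash calcium dye. Compounds added and calcium flux read 180 s, then dopamine added at EC80 and read a further 180 s.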
Work on `CCc1cccc(CC)c1NC(=O)c1c(C)oc2ccc(O)c(CN3CCOCC3)c12` yielded an inhibition of 6.59%.
`CCOC(=O)c1cccc(NS(=O)(=O)c2c(C)nc3sc(C)cn3c2=O)c1` showed an inhibition of -6.7%.
Work on `Cc1cccc(NC(=O)CSc2cn(CC(=O)N3CCOCC3)c3ccccc23)c1` yielded an inhibition of 14.2%.
With `COc1ccc(S(=O)(=O)N(CCc2ccccc2)CC(=O)Nc2cc(C)ccc2C)cc1` the inhibition was -16%.
`CCn1cc(C(=O)NCCOC)c(=O)c2cc(S(=O)(=O)N3CCOCC3)ccc21` showed an inhibition of 1.98%.
`CCc1ccc(NC(=O)C2CCN(S(=O)(=O)c3c(C)noc3/C=C/c3cccs3)CC2)cc1` gave an inhibition of 12.7%.
For `CCSc1nnc2c(n1)OC(c1ccc(OCC(=O)O)cc1)Nc1ccccc1-2` (stereo unspecified), the inhibition was -0.102%.
For `O=C(CCC1N=C2c3ccccc3N=C(SCC(=O)Nc3ccccc3F)N2C1=O)NCc1cccs1` (stereo unspecified), the inhibition was 0.623%.
`CCOC(=O)C1=C(c2ccccc2)Nc2ncnn2C1c1ccc(Cl)cc1` (stereo unspecified) showed an inhibition of 20.2%.
With `COc1ccc(C(=O)CCN2CCN(c3ccccc3F)CC2)cc1` the inhibition was active: 81.5%.
For `Cc1ccc(SCc2nc(-c3ccc(C(=O)NCc4ccccc4Cl)cc3)oc2C)cc1`, the inhibition was 8.6%.
For `CC(=O)Nc1cccc(NC(=O)C2(c3cccs3)CCOCC2)c1`, the inhibition was 14.1%.
Work on `COc1cccc(-c2nnc3n(CCc4ccccc4)c(=O)c4ccccc4n23)c1O` yielded an inhibition of -19.3%.
In the case of `CCOC(=O)CC(=O)CSc1nc2ccccc2c(=O)n1CCc1ccccc1`, the inhibition is reported as 5.77%.
`Cn1c(=O)c(=O)n(C)c2cc(N3CCCC3)c(NC(=O)c3ccc(C(C)(C)C)cc3)cc21` was tested, and the inhibition was -1.31%.
`COc1ccc(C)cc1NC(=O)C1CCCN(S(=O)(=O)c2ccc3c(c2)oc(=O)n3C)C1` (stereo unspecified) showed an inhibition of 8.17%.
With `COc1cc(C(=O)NC2CCN(Cc3ccccc3)CC2)cc(Cl)c1OC(C)C` the inhibition was active: 47.6%.
`CC(=O)Nc1ccc(S(=O)(=O)N2CCN(c3ccccc3)CC2)cc1` was tested, and the inhibition was -12%.
For `Cc1cccc(Cn2c(SCc3ccc(C(=O)NCCc4ccccc4)cc3)nc3cccnc32)c1`, the inhibition was 3.7%.
With `CCc1nn(CC(=O)N2CCN(c3cccc(C(F)(F)F)c3)CC2)c(=O)c2cc3occc3n12` the inhibition was -0.142%.
For `COc1cccc2cc(-c3nnc(-c4ccc(Cl)cc4)o3)c(=O)oc12`, the inhibition was -19.8%.
Work on `CCCCCn1c(=O)[nH]c2cc(C(=O)Nc3ccc(OC)c(OC)c3)ccc2c1=O` yielded an inhibition of 2.6%.
`COc1cccc(N2CCN(C(=O)Cn3cnc4onc(-c5ccc(F)cc5)c4c3=O)CC2)c1` gave an inhibition of 13.8%.
`COc1cccc(-c2nc(CS(=O)(=O)CC(=O)NCCCN3CCN(C)CC3)c(C)o2)c1` was tested, and the inhibition was 18.9%.
`O=C(Nc1ccc(NC(=O)c2ccc(Br)cc2)c(Cl)c1)c1ccc(Br)cc1` was tested, and the inhibition was 2.14%.
`COc1ccc(CNc2oc(COc3cccc(C)c3)nc2C#N)cc1` was tested, and the inhibition was -0.945%.
